The results in this text go back to the supplement of paper PMC11417369.

The other results are listed elsewhere or left out.

For this experiment, the system named is PfAP2-HC AP2 domain (GST-tagged). In words: gcPBM binding intensity (ln(normalized median fluorescence intensity)); higher = stronger DNA binding. Summed up: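 The binding buffer was 1× PBS containing 1% milk, 0.2 mg/ml BSA, 0.5% salmon testes DNA and 0.03% Triton X-100. In it, GST-tagged P. falciparum DNA-binding domains expressed in E. coli were applied for 1 h to an Agilent 4 × 180k array of primer-extended double-stranded 36-bp intergenic genomic probes plus negative controls. Binding intensity, read with Alexa488 anti-GST antibody and a 488 nm scan, is the highest Masliner-normalised natural-log median intensity across replicate spots of either probe orientation.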
“ATTAGTGACATTATTACACACAAAAGAAAACAGAAA [CACACA_site3984]”: the “gcPBM binding intensity (ln)” value came out at 9.99.
The same measure for TGAATCTATATACAGGTGCGTAAAAAATAACTTATA: 9.47; for “TGTATGATTATGTTGTGTACGTAAAATATGAAAAAT [XGTACX_site1720]”: 9.74; for “GCACACATATAATTAAACATATATTTGTATTATTTT [GTGCAC_negctrl_site327]”: 9.9.
Consider “GTATCATAAAAGTATACACACATACATACATATGTA [CACACA_site5456]”, for which the “gcPBM binding intensity (ln)” value is 9.95.
The same measure for “ATCTCTACAAAGTGCACACACGTAAAAACATATATA [CACACA_site6046]”: 9.92.
The same measure for “ATTTTCCTTTAATTATGTACTTATGTAATAATAATG [XGTACX_site2612]”: 9.63.
The same measure for “TTTTAATGTATATTTTGTACGTATTATTAATATTCG [XGTACX_site8453]”: 9.64.
As to “TATCCTAATGCTACCACACACACAAAAACAAATAAT [CACACA_site2609]”, the “gcPBM binding intensity (ln)” value was determined as 10.7.
The same measure for “AATATTTATGGGTGCACACAAACATACATATATATA [CACACA_site3395]”: 10.2; for “AAAAAAAAGAATAGAGCATGCAAAATATATGAAATA [TGCATGCA_site933]”: 10.2; for “ATGTTGAAAGGAAAAAATAATAAAATCGATATATTA [CACACA_negctrl_site549]”: 9.6.
As for “CCTTACTTCTTATAAAGTACCCAATGATATACATTA [XGTACX_site1554]”, the “gcPBM binding intensity (ln)” value is 9.54.
The same measure for “AGGAAATTTGTTATTGCACACAAATTTTTCTTTTTT [CACACA_site8732]”: 9.78; for “AATGTCAGTATGCGAGGTACACGTATAAAAATTACA [XGTACX_site4109]”: 9.65.
On to “TATTATAATAAACCTATACACACATAAATAAATAAA [GTGCAC_negctrl_site627]”, for which the “gcPBM binding intensity (ln)” value came out at 9.86.
On to “TACATAAATTAAAACACACACACACTAGAAAAAAAA [CACACA_site5278]”, for which the “gcPBM binding intensity (ln)” value was found to be 10.6.
With “TTTTACTAAATATATACACACATTATACAGATATAT [CACACA_site5765]”, the “gcPBM binding intensity (ln)” value stood at 9.86.
For the sequence “TTTTAAATTGGAGTGGGCAGATTGATATTATTCTTC [GTGCAC_negctrl_site191]”, the “gcPBM binding intensity (ln)” value came out at 9.8.
For “AAAAATAAAATATATACACACATATATATATATATA [CACACA_site2943]”, the “gcPBM binding intensity (ln)” value was found to be 9.61.
The same measure for “ACATATATATATATGTGTACATATTTATACAACAAT [XGTACX_site6660]”: 10.1.
On to TTTTTAATTTTGTGGGTGCTTTCGTGTTATTATATA, for which the “gcPBM binding intensity (ln)” value was determined as 10.1.
The same measure for “AAGTATAAATTAAAATGTACTTATAAAAAAAAAGAA [XGTACX_site7028]”: 9.85; for “TGTCACATAATTTATGCACACAATGATTATGCTTAA [CACACA_site2358]”: 9.71; for “ACATATATTGTACATACACACCTATATAAATATCCT [CACACA_site7503]”: 9.82.
Take “TATGTATGTATGTATGCATGTGTAACACCTAAATAT [TGCATGCA_site361]”: the “gcPBM binding intensity (ln)” value was 9.8.
Turning to “CCATATTTCATTAATGAACACACAAAGAGGTATATA [CACACA_site8431]”, the “gcPBM binding intensity (ln)” value came out at 9.77.
With “TATATATATATACCAACACACATACATATATATATA [CACACA_site8530]”, the “gcPBM binding intensity (ln)” value was 9.99.
The same measure for “TAAAAAATAAAAATTGCACACTAAAAAATTACGCAC [CACACA_site9129]”: 9.73; for “TTCAACATATTAAAAAGTACAGAATATAACATTATA [XGTACX_site1361]”: 9.56; for “GAATAAAAAATTGGCACACATAAATATATGGATATA [CACACA_site3047]”: 9.83.
The same measure for “TATACGTGAATGACAGTGCATTTCAAAAGTATAAAA [GTGCAC_site9887]”: 9.79; for “AATAAATTTAGACACACACACACATATAAATAAATA [CACACA_site6531]”: 11.1.
The same measure for “TATATATCCTCTGAATGTACTTGTTTAATAATGTAG [XGTACX_site4332]”: 9.45; for “TGTGTAATATTCTGTTGTACATAACTCATAAATAAA [XGTACX_site5308]”: 9.37; for “ATAATATAATATATATGTACACATCCTTTTTGTGTA [XGTACX_site2879]”: 9.66.
Regarding “TAAAAGTAAAAAGGTAGTACCTAAATAATATATATA [XGTACX_site8399]”, the “gcPBM binding intensity (ln)” value turned out to be 9.86.
The same measure for “ATAAGATAGGCATATACACACATTTATTTACAGATA [CACACA_site5754]”: 9.8; for “AGTAGGCATATTGGTTGTACAAAAAAATTATGCACC [XGTACX_site8925]”: 9.8; for “TTTTTTTTTTCTCTCGCACACATTTTTTAAAATGAG [CACACA_site2607]”: 9.93.
The same measure for “ATATTTATATAGATGTGTACATAAATATAATAACAT [XGTACX_site1681]”: 9.81; for “GACTCTTAAAAAATTTGTACCCACATAAATAATATA [XGTACX_site4313]”: 9.48; for “TTTGGGTATACACATACATGCATGTCCTTATATATA [TGCATGCA_site84]”: 10.
In the case of “ATTATTTATTTATTTTTTTTTTTTTTCTCTTTTCCT [GTGCAC_negctrl_site656]”, the “gcPBM binding intensity (ln)” value worked out at 9.47.
The same measure for “ATATCATAAATTTATGCATGTTCTTTCTTCAACTCT [TGCATGCA_site992]”: 9.64; for “TTGAATAAATTGGAATAAATATAATAAAATAAGGAA [XGTACX_negctrl_site302]”: 9.86; for “CATACATATATTATTGCACACATATAAAATACCCCC [CACACA_site9292]”: 10.5.
The same measure for TACCAATAAATGAAGGTGCGTGCTTGCCTTTGCTAT: 9.64.
The same measure for “TAGGAATTTAATAAATGTACATATACATAATATATA [XGTACX_site3672]”: 9.55; for “TTGTATAGTCTGATATGTACATATATATATATATAA [XGTACX_site4307]”: 9.66.
Turning to “TATAAAAAATTAAAATTTTTCTTATTTTTTTTAGAT [TGCATGCA_negctrl_site125]”, the “gcPBM binding intensity (ln)” value is 9.2.
The same measure for “ACCACCAGGAACAAAGCACATTAGGAAAAATAAAAC [XGTACX_negctrl_site228]”: 9.96; for “TGGATACACAAAAATTAAAAAAATAAACAAACAAAT [GTGCAC_negctrl_site105]”: 9.76; for “TCCTTACATTTTAAAACACACAAAAATTAATTGTTA [CACACA_site2313]”: 9.52.
On to “AAAAAATAGTGGTATGCATGTCCCTTGTATTTTCTT [TGCATGCA_site587]”, for which the “gcPBM binding intensity (ln)” value was determined as 9.63.
With “TACTTTTATATGAATACACACAGGAATATAAATATG [CACACA_site7647]”, the “gcPBM binding intensity (ln)” value turned out to be 9.81.
With “AAAATACCCATTTTAGTACACACTTAAAAAATTATT [CACACA_site8966]”, the “gcPBM binding intensity (ln)” value stood at 9.62.
“AGACCTATGATATATACACACATATATTTATTTATA [CACACA_site6630]”: the “gcPBM binding intensity (ln)” value worked out at 9.9.
The same measure for “TATATAACTAAAATAACACACATATATAAAAATATA [CACACA_site7416]”: 9.88; for “ATTATAACACTTATTTCATTTGTATGCCCTTTAAAA [CACACA_negctrl_site955]”: 9.62; for “TAATATTTCATTAGGTGTACACTACATAGTAGTAGA [XGTACX_site366]”: 9.57.
Turning to “TATAAATATTTTATTGTACACACTTTTTATGAATGA [CACACA_site3136]”, the “gcPBM binding intensity (ln)” value was 9.65.
Regarding “GTTTGTTTGTTTGTTCGTACATATATAAAATAAAAA [XGTACX_site4731]”, the “gcPBM binding intensity (ln)” value was found to be 9.52.
The same measure for “TATGCAATATATTATATTCTGTAAATATTATATATT [TGCATGCA_negctrl_site67]”: 9.56; for “TTTTTTAAAATATGGACACACATATATATATCTGTA [CACACA_site5535]”: 9.62; for “TATATATTTTTTAATTGTACACTTCAAAAACAAAAA [XGTACX_site5595]”: 9.34.
The same measure for “ATAATCAACATTAGGTGTACAAAATATGTATGTTTT [XGTACX_site6696]”: 9.85.
The same measure for GTAGTTATATTAAGGGTGCTTAATTAGATTAAACAA: 9.59; for “AAAAACTTAATATTGACACACATTTTTAAGAATAAT [CACACA_site4291]”: 9.72; for “ATTGAACACATCTATGCATGCACGGAAAAAAGTACA [TGCATGCA_site401]”: 9.89.
Turning to “AGAATAAATAAATATTGTACATATAAAATATATATA [XGTACX_site896]”, the “gcPBM binding intensity (ln)” value is 9.72.
As for “TTCAAATTTCCACATACACACCTTGTAGATATATAT [CACACA_site7984]”, the “gcPBM binding intensity (ln)” value was determined as 9.85.
The same measure for “ATGCGTTTAGCAAAAAGTACATATATATATAATATT [XGTACX_site1928]”: 9.57.
For “ATATATATATATATTTGTACTTAATTGATTTTACTT [XGTACX_site2663]”, the “gcPBM binding intensity (ln)” value was found to be 10.
With “ATTATTGATTTATAAACACACACTCGAAGATGTTTA [CACACA_site8294]”, the “gcPBM binding intensity (ln)” value was 9.7.
The same measure for “TTGAAATACTTTATTTGTACATATAGCAAAGTGTAT [XGTACX_site8782]”: 9.59; for “ATTTTTTCTAGACATGCATGTGAAATTTACTTTTTT [TGCATGCA_site305]”: 9.72.
The same measure for “CTTTCTCTCAAAATGACATGCAATTTGTTTCTTTTT [TGCATGCA_site169]”: 9.88; for “AAAAAAATATATAATAGTACATATATAGGAATATAT [XGTACX_site4591]”: 9.76.
In the case of “TAATATCTTGAGTCATCACACATTGATTAATGAATC [CACACA_site5735]”, the “gcPBM binding intensity (ln)” value came to 9.44.
The same measure for “TGAATACAGATATTCACACAAATAGTTTTGATATAT [CACACA_site5527]”: 9.59; for “AGTGGAAATTTTATTTGTACATAAATATTTACATAC [XGTACX_site633]”: 9.5; for “CTTTTTTTTTTTTTTGCACACACATATATAAATATA [CACACA_site3950]”: 10.1.
On to “ATTTTTTTTTAATGCAATATATTTTGAAAATTTTAT [CACACA_negctrl_site753]”, for which the “gcPBM binding intensity (ln)” value is 9.54.
For the sequence “TTTTTTTTTTTTTTTACACACTTTATTCAAACAACT [CACACA_site4104]”, the “gcPBM binding intensity (ln)” value was found to be 9.47.
The same measure for “ATTGATACATCCAATACACACTACATATTATGATGT [CACACA_site6965]”: 9.89; for “TTGGCATACAGACACACACACACACCCCCACATATA [CACACA_site590]”: 10.9.
The same measure for “AATTTATTAAAAAAATGTACTTATTTTTTTGTATAA [XGTACX_site5844]”: 9.39; for “TTTTTTTTTTTTTTTTTTTTTTTTTCATATTAATAT [GTGCAC_negctrl_site351]”: 9.04.
